According to publication PMC4336329 (PLoS ONE, 2015):
Out of some 310,000 compounds screened, about 14,000 (4.5%) showed an effect of 50% or more. The effect is printed as a negative number. The list shows a part of the results.

The compounds below were run against human ether-à-go-go-related gene (hERG) potassium channel (human, UniProt Q12809) (assay: primary screen, population patch clamp on CHO cells stably expressing hERG).
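Also: peak tail current of the secondary pulse compared with the same well before compound.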

Chain of human ether-à-go-go-related gene (hERG) potassium channel (Q12809 whole entry, looked up): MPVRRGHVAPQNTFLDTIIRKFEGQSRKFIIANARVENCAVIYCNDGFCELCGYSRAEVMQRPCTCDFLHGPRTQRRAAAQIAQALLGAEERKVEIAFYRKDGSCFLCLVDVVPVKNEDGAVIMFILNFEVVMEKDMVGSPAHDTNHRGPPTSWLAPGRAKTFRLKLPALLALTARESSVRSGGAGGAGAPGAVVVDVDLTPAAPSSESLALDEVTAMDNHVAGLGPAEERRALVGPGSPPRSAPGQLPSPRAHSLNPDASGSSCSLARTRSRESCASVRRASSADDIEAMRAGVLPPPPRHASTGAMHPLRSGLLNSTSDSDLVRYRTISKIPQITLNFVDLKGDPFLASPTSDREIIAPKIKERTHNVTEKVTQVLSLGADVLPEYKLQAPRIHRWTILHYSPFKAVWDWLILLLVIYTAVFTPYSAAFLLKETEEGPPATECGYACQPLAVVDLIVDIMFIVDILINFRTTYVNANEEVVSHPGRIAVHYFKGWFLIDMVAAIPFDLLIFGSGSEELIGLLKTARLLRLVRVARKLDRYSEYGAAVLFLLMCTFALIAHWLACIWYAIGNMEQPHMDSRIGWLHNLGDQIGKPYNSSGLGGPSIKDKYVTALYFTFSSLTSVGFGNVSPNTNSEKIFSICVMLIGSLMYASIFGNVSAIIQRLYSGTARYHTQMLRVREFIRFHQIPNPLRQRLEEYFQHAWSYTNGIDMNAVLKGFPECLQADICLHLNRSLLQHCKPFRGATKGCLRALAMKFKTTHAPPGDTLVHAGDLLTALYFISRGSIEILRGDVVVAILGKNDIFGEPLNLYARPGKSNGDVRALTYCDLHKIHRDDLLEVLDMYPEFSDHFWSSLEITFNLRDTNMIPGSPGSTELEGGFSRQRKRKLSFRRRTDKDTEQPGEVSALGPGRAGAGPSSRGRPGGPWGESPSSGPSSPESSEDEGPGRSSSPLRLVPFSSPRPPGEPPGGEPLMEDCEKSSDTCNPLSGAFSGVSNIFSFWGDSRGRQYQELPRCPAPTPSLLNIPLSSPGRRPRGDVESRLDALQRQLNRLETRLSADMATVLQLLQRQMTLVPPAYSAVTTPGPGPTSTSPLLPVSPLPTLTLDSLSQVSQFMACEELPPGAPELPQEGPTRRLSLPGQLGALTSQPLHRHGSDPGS

| SMILES | hERG current change (%, negative = inhibition) at 10uM [%] |
| --- | --- |
| Cc1sc2nc(SCc3ccc(C(=O)O)cc3)n(Cc3ccco3)c(=O)c2c1C | -59.2 |
| O=C(CSc1ncccn1)N/N=C/c1cccc([N+](=O)[O-])c1 | -32.4 |
| COC(=O)c1cc(-c2ccccc2)nc2nc(SC)[nH]c(=O)c12 | 6.95 |
| CSc1ncccc1C(=O)Nc1nc2c(C)cccc2s1 | 6.12 |
| Cc1c(C(=O)NCCSCc2c(Cl)cccc2Cl)cccc1[N+](=O)[O-] | 7.47 |
| CCOc1ccccc1N1CC(C(=O)Nc2ccc(C(=O)O)cc2)CC1=O (centres unmarked) | 16.7 |
| CN(CCC#N)C(=O)c1cc2c(Cl)nc3ccccc3c2s1 | 3.44 |
| COCCn1nnnc1C(c1ccccc1)N1CCN(C(=O)c2ccco2)CC1.Cl (centres unmarked) | 16.7 |
| COc1ccc2c(COC(=O)c3cccc(S(=O)(=O)NCC(C)C)c3)cc(=O)oc2c1 | 7.67 |
| CCOP(=O)(OCC)c1cccc(P(=O)(c2ccccc2)c2ccccc2)c1O | 3.2 |
| Cc1cccc(C(=O)Nc2cccc(C(=O)NC3CCCC3)c2)c1 | -22.6 |
| O=C(c1ccc(S(=O)(=O)Nc2ccccc2F)cc1)N1CCC1 | -0.425 |
| Cl.O=C1c2cccc3c2[C@H](CCC3)CN1[C@@H]1CN2CCC1CC2 | -46.2 |
| COc1ccc(S(=O)(=O)CCC(=O)N2CCN(c3ccccc3F)CC2)cc1 | -8.33 |
| Cc1ccc(S(=O)(=O)Nc2ccc(OCC(=O)N3CCOCC3)cc2)c(C)c1NS(C)(=O)=O | 18.8 |
| CN1CCN(C(=S)Nc2ccc(Cl)cc2Cl)CC1 | -5.12 |
| COc1ccccc1NC(=O)CSc1nc2sc(C)c(C)c2c(=O)n1C | 6.42 |
| Cc1onc(-c2ccccc2)c1C(=O)Nc1ccc(NC(=O)c2c(-c3ccccc3)noc2C)cc1 | 14.2 |
| O=C(COc1ccccc1)NCC(=O)N/N=C/c1ccco1 | -9.97 |

| SMILES | hERG current change (%, negative = inhibition) at 10uM [%] |
| --- | --- |
| COc1nc(Nc2ccccc2F)nc(OC)n1 | -5.88 |
| CCN(CC)CCCN(Cc1cc2cc(OC)ccc2[nH]c1=O)C(=O)Nc1ccc(F)cc1 | -69.9 |
| Cc1ccccc1C(=O)Nc1ccccn1 | 3.91 |
| CCc1ccc(-c2csc3ncn(CC)c(=O)c23)cc1 | -12 |
| COc1ccc(Cl)cc1-c1nc(N)nc(NC2CCCCC2)n1 | 5.8 |
| Cc1ccc[n+](CC(=O)c2cc3ccccc3oc2=O)c1.[Br-] | -10.5 |
| Cc1nc2[nH]c(=S)[nH]c2cc1Br | 17.4 |
| Cc1[nH][nH]c(=O)c1C(c1ccc(O)c(Br)c1)c1c(C)[nH][nH]c1=O | 4.34 |
| CS(=O)(=O)N1CCC(C(=O)Nc2ccccc2Cl)CC1 | 18.4 |
| Cc1ccc2c(c1)N(CC(=O)NCCc1c[nH]c3ccccc13)C(=O)CO2 | -15.4 |
| CCOC(=O)C(CC)(CC)C(=O)/C=C/c1cccc(Br)c1 | 7.17 |
| CCC(=O)c1c(NC(CC)CO)cc(C)oc1=O (centres unmarked) | 6.24 |
| N#CC1(NC(=O)COC(=O)c2nc(Cl)c(Cl)c(N)c2Cl)CCCCC1 | -29.7 |
| COc1ccc(C(=O)NCC(c2cccnc2)N2CCN(c3ccccc3OC)CC2)cc1OC (centres unmarked) | -5.3 |
| COc1ccc(-c2csc(Nc3ccccc3)[n+]2CC(O)c2ccc([N+](=O)[O-])cc2)cc1.[Br-] (centres unmarked) | 13 |
| CCOc1ccc(NC(=O)Nc2ccc3c(c2)CCC3)cc1 | -29.4 |
| Cc1ccc(C)c(-n2ccnc2SCC(N)=O)c1 | 15.6 |
| CSc1ccccc1NC(=O)Cc1ccccc1 | 13.8 |
| COc1ccc2[nH]c(=O)c(CN(Cc3ccccc3)Cc3nnnn3CC3CCCO3)cc2c1 (centres unmarked) | -4.75 |

| SMILES | hERG current change (%, negative = inhibition) at 10uM [%] |
| --- | --- |
| N=C1S/C(=C\c2cn[nH]c2-c2ccc(F)cc2)C(=O)N1c1ccccc1F | 3.44 |
| O=C(COc1ccc(S(=O)(=O)N2CCCC2)cc1Cl)NCc1ccco1 | -25.3 |
| CC(=O)c1c(C)[nH]c(C(=O)COC(=O)c2nccnc2N)c1C | -8.55 |
| O=C(NCCO)c1nc(C(=O)c2ccc(Cl)cc2)c2ccccc2n1 | -0.748 |
| CCCCN(C)C(=O)c1nc2ccccn2c1CN1CCC[C@H]1CO | 3.21 |
| O=C1c2cccc(OCC(=O)N3N=C(c4cccs4)CC3c3ccc(F)cc3)c2CCN1Cc1cccnc1 (centres unmarked) | -15.1 |
| CC(C)(C)n1nc(C2CC2)cc1NC(=O)Nc1ccc(Cl)cc1 | 25.4 |
| Cc1cc(=O)cc(C)n1-c1ccc(Br)cc1 | 12.1 |
| Cc1ccc2nc(Cn3cc(C(F)(F)F)ccc3=O)cc(=O)n2c1 | 0.435 |
| Cc1cc2oc3ccc(NCCCN4CCOCC4)cc3c(=O)c2cc1C | 10.8 |
| C=CCn1c(C(CC(C)C)CC(C)O)n[nH]c1=S (centres unmarked) | 14.5 |
| Cc1ccccc1NS(=O)(=O)c1cc(C(=O)NCCC2=CCCCC2)ccc1C | -24.6 |
| COC(=O)c1noc(C)c1-c1ccnn1C(=O)c1ccc(Cl)cc1 | 15 |
| COc1ccc(C2c3ccc4ccccc4c3Oc3ncn(CCO)c(=N)c32)cc1 (centres unmarked) | -74.2 |
| O=C(Cn1c(=O)cnc2ccccc21)NCC(=O)Nc1ccc(F)c(F)c1 | -2.38 |
| NNC(=O)Cn1nc(-c2ccccc2)c2ccccc2c1=O | 14.8 |
| Cc1ccc(C)c(CN2C(=O)c3ccccc3S(=O)c3ccc(C(=O)NCCCN4CCCC4)cc32)c1 (centres unmarked) | -17.6 |
| O=C1C(C2=NC(C(=O)O)C3C(=O)N(c4ccccc4)C(=O)C23)=C(O)c2ccccc21 (centres unmarked) | -10.5 |
